# From the supplement of paper PMC8728848
# The list shows a part of the results.
# Columns and labels:
# Assay in all cases: glycan array binding signal (z-score within array); higher = stronger binding
# Settings in all cases: glycan notation: IUPAC condensed, linker removed
# [1] = biological target: GlcNAc(b1-3)Fuc
# How it was run: (§1)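 Glycan array binding is given as a within-array Z-score, which can be read as non-binding when negative. The arrays, 3228 of them, came from the Consortium for Functional Glycomics database and were retained only where the protein sequence was available. Z-scores were averaged across arrays of the same protein sequence at different concentrations or buffers and across linkers.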
# [2] = biological target: GlcNAc(b1-3)Gal
# How it was run: as §1
# [3] = biological target: GlcNAc(b1-3)Gal(b1-3)GalNAc
# How it was run: as §1
# [4] = biological target: GlcNAc(b1-3)Gal(b1-4)Glc
# How it was run: as §1
# [5] = biological target: GlcNAc(b1-3)Gal(b1-4)GlcNAc
# How it was run: as §1
# [6] = biological target: GlcNAc(b1-3)Gal(b1-4)GlcNAc(b1-2)Man(a1-3)[GlcNAc(b1-3)Gal(b1-4)GlcNAc(b1-2)Man(a1-6)]Man(b1-4)GlcNAc(b1-4)GlcNAc
# How it was run: as §1
# [7] = biological target: GlcNAc(b1-3)Gal(b1-4)GlcNAc(b1-2)Man(a1-3)[GlcNAc(b1-3)Gal(b1-4)GlcNAc(b1-2)Man(a1-6)]Man(b1-4)GlcNAc(b1-4)[Fuc(a1-6)]GlcNAc
# How it was run: as §1
# [8] = biological target: GlcNAc(b1-3)Gal(b1-4)GlcNAc(b1-2)[GlcNAc(b1-3)Gal(b1-4)GlcNAc(b1-6)]Man(a1-6)[GlcNAc(b1-3)Gal(b1-4)GlcNAc(b1-2)Man(a1-3)]Man(b1-4)GlcNAc(b1-4)GlcNAc
# How it was run: as §1
# [9] = biological target: GlcNAc(b1-3)Gal(b1-4)GlcNAc(b1-3)Gal(b1-4)GlcNAc
# How it was run: as §1
# [10] = biological target: GlcNAc(b1-3)Gal(b1-4)GlcNAc(b1-3)Gal(b1-4)GlcNAc(b1-2)Man(a1-3)[GlcNAc(b1-3)Gal(b1-4)GlcNAc(b1-3)Gal(b1-4)GlcNAc(b1-2)Man(a1-6)]Man(b1-4)GlcNAc(b1-4)GlcNAc
# How it was run: as §1
# [11] = biological target: GlcNAc(b1-3)Gal(b1-4)GlcNAc(b1-3)Gal(b1-4)GlcNAc(b1-2)Man(a1-3)[GlcNAc(b1-3)Gal(b1-4)GlcNAc(b1-3)Gal(b1-4)GlcNAc(b1-2)Man(a1-6)]Man(b1-4)GlcNAc(b1-4)[Fuc(a1-6)]GlcNAc
# How it was run: as §1
# [12] = biological target: GlcNAc(b1-3)Gal(b1-4)GlcNAc(b1-3)Gal(b1-4)GlcNAc(b1-2)[GlcNAc(b1-3)Gal(b1-4)GlcNAc(b1-3)Gal(b1-4)GlcNAc(b1-6)]Man(a1-6)[GlcNAc(b1-3)Gal(b1-4)GlcNAc(b1-3)Gal(b1-4)GlcNAc(b1-2)Man(a1-3)]Man(b1-4)GlcNAc(b1-4)[Fuc(a1-6)]GlcNAc
# How it was run: as §1
# [13] = biological target: GlcNAc(b1-3)Gal(b1-4)GlcNAc(b1-3)Gal(b1-4)GlcNAc(b1-3)Gal(b1-4)GlcNAc(b1-2)Man(a1-3)[GlcNAc(b1-3)Gal(b1-4)GlcNAc(b1-3)Gal(b1-4)GlcNAc(b1-3)Gal(b1-4)GlcNAc(b1-2)Man(a1-6)]Man(b1-4)GlcNAc(b1-4)GlcNAc
# How it was run: as §1
# [14] = biological target: GlcNAc(b1-3)Gal(b1-4)GlcNAc(b1-3)Gal(b1-4)GlcNAc(b1-3)Gal(b1-4)GlcNAc(b1-2)Man(a1-3)[GlcNAc(b1-3)Gal(b1-4)GlcNAc(b1-3)Gal(b1-4)GlcNAc(b1-3)Gal(b1-4)GlcNAc(b1-2)Man(a1-6)]Man(b1-4)GlcNAc(b1-4)[Fuc(a1-6)]GlcNAc
# How it was run: as §1
# [15] = biological target: GlcNAc(b1-3)Gal(b1-4)GlcNAc(b1-3)Gal(b1-4)GlcNAc(b1-3)Gal(b1-4)GlcNAc(b1-2)[GlcNAc(b1-3)Gal(b1-4)GlcNAc(b1-3)Gal(b1-4)GlcNAc(b1-3)Gal(b1-4)GlcNAc(b1-6)]Man(a1-6)[GlcNAc(b1-3)Gal(b1-4)GlcNAc(b1-3)Gal(b1-4)GlcNAc(b1-3)Gal(b1-4)GlcNAc(b1-2)Man(a1-3)]Man(b1-4)GlcNAc(b1-4)[Fuc(a1-6)]GlcNAc
# How it was run: as §1
# [16] = biological target: GlcNAc(b1-3)Gal(b1-4)GlcNAc(b1-3)Gal(b1-4)GlcNAc(b1-3)Gal(b1-4)GlcNAc(b1-3)Gal(b1-4)GlcNAc(b1-2)Man(a1-3)[GlcNAc(b1-3)Gal(b1-4)GlcNAc(b1-3)Gal(b1-4)GlcNAc(b1-3)Gal(b1-4)GlcNAc(b1-3)Gal(b1-4)GlcNAc(b1-2)Man(a1-6)]Man(b1-4)GlcNAc(b1-4)GlcNAc
# How it was run: as §1
# [17] = biological target: GlcNAc(b1-3)Gal(b1-4)GlcNAc(b1-3)Gal(b1-4)GlcNAc(b1-3)Gal(b1-4)GlcNAc(b1-3)Gal(b1-4)GlcNAc(b1-2)Man(a1-3)[GlcNAc(b1-3)Gal(b1-4)GlcNAc(b1-3)Gal(b1-4)GlcNAc(b1-3)Gal(b1-4)GlcNAc(b1-3)Gal(b1-4)GlcNAc(b1-2)Man(a1-6)]Man(b1-4)GlcNAc(b1-4)[Fuc(a1-6)]GlcNAc
# How it was run: as §1
# [18] = biological target: GlcNAc(b1-3)Gal(b1-4)GlcNAc(b1-3)Gal(b1-4)GlcNAc(b1-3)Gal(b1-4)GlcNAc(b1-3)Gal(b1-4)GlcNAc(b1-2)[GlcNAc(b1-3)Gal(b1-4)GlcNAc(b1-3)Gal(b1-4)GlcNAc(b1-3)Gal(b1-4)GlcNAc(b1-3)Gal(b1-4)GlcNAc(b1-6)]Man(a1-6)[GlcNAc(b1-3)Gal(b1-4)GlcNAc(b1-3)Gal(b1-4)GlcNAc(b1-3)Gal(b1-4)GlcNAc(b1-3)Gal(b1-4)GlcNAc(b1-2)Man(a1-3)]Man(b1-4)GlcNAc(b1-4)[Fuc(a1-6)]GlcNAc
# How it was run: as §1
# [19] = biological target: GlcNAc(b1-3)Gal(b1-4)GlcNAc(b1-3)Gal(b1-4)GlcNAc(b1-3)GalNAc
# How it was run: as §1
# [20] = biological target: GlcNAc(b1-3)Gal(b1-4)GlcNAc(b1-3)GalNAc
# How it was run: as §1
# [21] = biological target: GlcNAc(b1-3)Gal(b1-4)GlcNAc(b1-3)[GlcNAc(b1-3)Gal(b1-4)GlcNAc(b1-3)]GalNAc
# How it was run: as §1
# [22] = biological target: GlcNAc(b1-3)Gal(b1-4)GlcNAc(b1-6)[Gal(b1-3)]GalNAc
# How it was run: as §1
# [23] = biological target: GlcNAc(b1-3)Gal(b1-4)GlcNAc(b1-6)[GlcNAc(b1-3)Gal(b1-3)]GalNAc
# How it was run: as §1
# [24] = biological target: GlcNAc(b1-3)Gal(b1-4)GlcNAc(b1-6)[GlcNAc(b1-3)]Gal(b1-4)GlcNAc
# How it was run: as §1
# [25] = biological target: GlcNAc(b1-3)GalNAc
# How it was run: as §1
# [26] = biological target: GlcNAc(b1-3)Man
# How it was run: as §1
# [27] = biological target: GlcNAc(b1-3)[GlcNAc(b1-4)][GlcNAc(b1-6)]GlcNAc
# How it was run: as §1
# [28] = biological target: GlcNAc(b1-3)[GlcNAc(b1-6)]Gal(b1-4)GlcNAc
# How it was run: as §1
# [29] = biological target: GlcNAc(b1-3)[GlcNAc(b1-6)]GalNAc
# How it was run: as §1
# [30] = biological target: GlcNAc(b1-4)Gal(b1-4)GlcNAc
# How it was run: as §1
# [31] = biological target: GlcNAc(b1-4)GlcNAc
# How it was run: as §1
# [32] = biological target: GlcNAc(b1-4)GlcNAc(b1-4)GlcNAc
# How it was run: as §1
# [33] = biological target: GlcNAc(b1-4)GlcNAc(b1-4)GlcNAc(b1-4)GlcNAc(b1-4)GlcNAc
# How it was run: as §1
# [34] = biological target: GlcNAc(b1-4)GlcNAc(b1-4)GlcNAc(b1-4)GlcNAc(b1-4)GlcNAc(b1-4)GlcNAc
# How it was run: as §1
# [35] = biological target: GlcNAc(b1-4)[GlcNAc(b1-6)]GalNAc
# How it was run: as §1
# [36] = biological target: GlcNAc(b1-6)Gal(b1-4)GlcNAc
# How it was run: as §1
# [37] = biological target: GlcNAc(b1-6)GalNAc
# How it was run: as §1
# [38] = biological target: GlcNAc3Prop(b1-4)GlcNAc
# How it was run: as §1
# [39] = biological target: GlcNAc6S(b1-3)Gal(b1-4)GlcNAc
# How it was run: as §1
# [40] = biological target: Kdn(a2-3)Gal(b1-3)GalNAc
# How it was run: as §1
# [41] = biological target: Kdn(a2-3)Gal(b1-3)GlcNAc
# How it was run: as §1
# [42] = biological target: Kdn(a2-3)Gal(b1-4)Glc
# How it was run: as §1
# [43] = biological target: Kdn(a2-3)Gal(b1-4)GlcNAc
# How it was run: as §1
# [44] = biological target: Kdn(a2-3)Gal(b1-4)[Fuc(a1-3)]GlcNAc
# How it was run: as §1
# [45] = biological target: Kdn(a2-6)Gal(b1-4)GlcNAc
# How it was run: as §1
binder,measurement,setting,value
"PA-IL (Pseudomonas aeruginosa), Q05097 (protein) MAWKGEVLANNEAGQVTSIIYNPGDVITIVAAGWASYGPTQKWGPQGDREHPDQGLICHDAFCGALVMKIGNSGTIPVNTGLFRWVAPNNVQGAITLIYNDVPGTYGNNSGSFSVNIGKDQS",glycan array binding signal (z-score),[1],-0.215
same,glycan array binding signal (z-score),[2],-0.228
same,glycan array binding signal (z-score),[3],-0.231
same,glycan array binding signal (z-score),[4],-0.213
same,glycan array binding signal (z-score),[5],-0.226
same,glycan array binding signal (z-score),[6],-0.22
same,glycan array binding signal (z-score),[7],-0.226
same,glycan array binding signal (z-score),[8],-0.164
same,glycan array binding signal (z-score),[9],-0.21
same,glycan array binding signal (z-score),[10],-0.082
same,glycan array binding signal (z-score),[11],-0.226
same,glycan array binding signal (z-score),[12],-0.204
same,glycan array binding signal (z-score),[13],-0.216
same,glycan array binding signal (z-score),[14],-0.198
same,glycan array binding signal (z-score),[15],-0.211
same,glycan array binding signal (z-score),[16],-0.188
same,glycan array binding signal (z-score),[17],-0.235
same,glycan array binding signal (z-score),[18],-0.184
same,glycan array binding signal (z-score),[19],-0.22
same,glycan array binding signal (z-score),[20],-0.221
same,glycan array binding signal (z-score),[21],-0.227
same,glycan array binding signal (z-score),[22],-0.246
same,glycan array binding signal (z-score),[23],-0.234
same,glycan array binding signal (z-score),[24],-0.232
same,glycan array binding signal (z-score),[25],-0.226
same,glycan array binding signal (z-score),[26],-0.225
same,glycan array binding signal (z-score),[27],-0.228
same,glycan array binding signal (z-score),[28],-0.235
same,glycan array binding signal (z-score),[29],-0.229
same,glycan array binding signal (z-score),[30],-0.237
same,glycan array binding signal (z-score),[31],-0.232
same,glycan array binding signal (z-score),[32],-0.233
same,glycan array binding signal (z-score),[33],-0.228
same,glycan array binding signal (z-score),[34],-0.23
same,glycan array binding signal (z-score),[35],-0.232
same,glycan array binding signal (z-score),[36],-0.223
same,glycan array binding signal (z-score),[37],-0.227
same,glycan array binding signal (z-score),[38],-0.225
same,glycan array binding signal (z-score),[39],-0.231
same,glycan array binding signal (z-score),[40],-0.204
same,glycan array binding signal (z-score),[41],-0.228
same,glycan array binding signal (z-score),[42],-0.216
same,glycan array binding signal (z-score),[43],-0.224
same,glycan array binding signal (z-score),[44],-0.217
same,glycan array binding signal (z-score),[45],-0.225
